The list shows a part of the results.
Biological target: T1, MBP-FoxP1dN (Mus musculus, UniProt P58462 326-579)
T1 sequence: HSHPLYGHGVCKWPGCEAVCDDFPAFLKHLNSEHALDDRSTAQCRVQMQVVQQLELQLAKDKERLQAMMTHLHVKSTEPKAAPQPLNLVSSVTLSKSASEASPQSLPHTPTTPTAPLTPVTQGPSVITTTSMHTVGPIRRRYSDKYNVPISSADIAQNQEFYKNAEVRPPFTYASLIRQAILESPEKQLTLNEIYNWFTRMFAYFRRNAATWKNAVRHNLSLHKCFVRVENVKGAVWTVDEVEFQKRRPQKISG
Experiment: PD-seq (MBP pull-down with sequencing); 20 mM Tris-HCl pH 7.5, 100 mM NaCl, 1.5 mM MgCl2, 0.4 uM protein, 0.1 uM dsDNA library, 30 min, room temperature, amylose pull-down; high values mean tight binding
Conditions: protein: recombinant; tags: His6-MBP; chain copies: 2; dsDNA, one strand shown
Method in brief: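 The N-terminus-lacking fragment of mouse FoxP3 or FoxP1 carried a His6-MBP tag and was expressed in E. coli. At 0.4 µM it was incubated with 0.1 µM Klenow-filled degenerate double-stranded DNA library for 30 min at room temperature in Tris pH 7.5 buffer with NaCl and MgCl2, and complexes were caught on amylose resin, washed three times, released with proteinase K, PCR-barcoded and Illumina-sequenced. Binding is reads-per-million enrichment of pull-down over input with replicates pooled.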

In order of falling binding signal:
1. GATGATTGTTCTCCCAGCTGATGAATTGCATTTATCGAGTAAACAAATTTTCCTAATCTTTCTGTTCAAGCGCCATCTAC  1.77 RPM ratio (pull-down/input)
2. GATGATTGTTCTCCCAGCTGATGAATTTATACAATCGAGTAAACAAATTTTCCTAATCTTTCTGTTCAAGCGCCATCTAC  1.67 RPM ratio (pull-down/input)
3. GATGATTGTTCTCCCAGCTGATGAATTAGTGTAATCGAGTAAACAAATTTTCCTAATCTTTCTGTTCAAGCGCCATCTAC  1.54 RPM ratio (pull-down/input)
4. GATGATTGTTCTCCCAGCTGATGAATTACCTATTTCGAGTAAACAAATTTTCCTAATCTTTCTGTTCAAGCGCCATCTAC  1.15 RPM ratio (pull-down/input)
5. GATGATTGTTCTCCCAGCTGATGAATTGTACGCATCGAGTAAACAAATTTTCCTAATCTTTCTGTTCAAGCGCCATCTAC  1.12 RPM ratio (pull-down/input)
6. GATGATTGTTCTCCCAGCTGATGAATTTCGAAAATCGAGTAAACAAATTTTCCTAATCTTTCTGTTCAAGCGCCATCTAC  1.07 RPM ratio (pull-down/input)
7. GATGATTGTTCTCCCAGCTGATGAATTTTATAATTCGAGTAAACAAATTTTCCTAATCTTTCTGTTCAAGCGCCATCTAC  1.07 RPM ratio (pull-down/input)
8. GATGATTGTTCTCCCAGCTGATGAATTGCACCGCTCGAGTAAACAAATTTTCCTAATCTTTCTGTTCAAGCGCCATCTAC  1.04 RPM ratio (pull-down/input)
9. GATGATTGTTCTCCCAGCTGATGAATTATGCCTTTCGAGTAAACAAATTTTCCTAATCTTTCTGTTCAAGCGCCATCTAC  1.04 RPM ratio (pull-down/input)
10. GATGATTGTTCTCCCAGCTGATGAATTATACTCATCGAGTAAACAAATTTTCCTAATCTTTCTGTTCAAGCGCCATCTAC  1.03 RPM ratio (pull-down/input)
11. GATGATTGTTCTCCCAGCTGATGAATTTTCTTACTCGAGTAAACAAATTTTCCTAATCTTTCTGTTCAAGCGCCATCTAC  0.975 RPM ratio (pull-down/input)
12. GATGATTGTTCTCCCAGCTGATGAATTGGGTGCGTCGAGTAAACAAATTTTCCTAATCTTTCTGTTCAAGCGCCATCTAC  0.968 RPM ratio (pull-down/input)
13. GATGATTGTTCTCCCAGCTGATGAATTATCGGCCTCGAGTAAACAAATTTTCCTAATCTTTCTGTTCAAGCGCCATCTAC  0.947 RPM ratio (pull-down/input)
14. GATGATTGTTCTCCCAGCTGATGAATTCGACCATTCGAGTAAACAAATTTTCCTAATCTTTCTGTTCAAGCGCCATCTAC  0.941 RPM ratio (pull-down/input)
15. GATGATTGTTCTCCCAGCTGATGAATTGCCCAGATCGAGTAAACAAATTTTCCTAATCTTTCTGTTCAAGCGCCATCTAC  0.91 RPM ratio (pull-down/input)
16. GATGATTGTTCTCCCAGCTGATGAATTTCGTCTCTCGAGTAAACAAATTTTCCTAATCTTTCTGTTCAAGCGCCATCTAC  0.896 RPM ratio (pull-down/input)
17. GATGATTGTTCTCCCAGCTGATGAATTTCTGTCTTCGAGTAAACAAATTTTCCTAATCTTTCTGTTCAAGCGCCATCTAC  0.89 RPM ratio (pull-down/input)
18. GATGATTGTTCTCCCAGCTGATGAATTACCCTTGTCGAGTAAACAAATTTTCCTAATCTTTCTGTTCAAGCGCCATCTAC  0.888 RPM ratio (pull-down/input)
19. GATGATTGTTCTCCCAGCTGATGAATTAGGCATGTCGAGTAAACAAATTTTCCTAATCTTTCTGTTCAAGCGCCATCTAC  0.883 RPM ratio (pull-down/input)
20. GATGATTGTTCTCCCAGCTGATGAATTAGACAGGTCGAGTAAACAAATTTTCCTAATCTTTCTGTTCAAGCGCCATCTAC  0.87 RPM ratio (pull-down/input)
21. GATGATTGTTCTCCCAGCTGATGAATTAATGGATTCGAGTAAACAAATTTTCCTAATCTTTCTGTTCAAGCGCCATCTAC  0.869 RPM ratio (pull-down/input)
22. GATGATTGTTCTCCCAGCTGATGAATTTCCCTAGTCGAGTAAACAAATTTTCCTAATCTTTCTGTTCAAGCGCCATCTAC  0.866 RPM ratio (pull-down/input)
23. GATGATTGTTCTCCCAGCTGATGAATTCTACTGATCGAGTAAACAAATTTTCCTAATCTTTCTGTTCAAGCGCCATCTAC  0.862 RPM ratio (pull-down/input)
24. GATGATTGTTCTCCCAGCTGATGAATTTGGTAGCTCGAGTAAACAAATTTTCCTAATCTTTCTGTTCAAGCGCCATCTAC  0.852 RPM ratio (pull-down/input)
25. GATGATTGTTCTCCCAGCTGATGAATTCCAGCCATCGAGTAAACAAATTTTCCTAATCTTTCTGTTCAAGCGCCATCTAC  0.85 RPM ratio (pull-down/input)
26. GATGATTGTTCTCCCAGCTGATGAATTTCCCCTGTCGAGTAAACAAATTTTCCTAATCTTTCTGTTCAAGCGCCATCTAC  0.819 RPM ratio (pull-down/input)
27. GATGATTGTTCTCCCAGCTGATGAATTGGAGGCCTCGAGTAAACAAATTTTCCTAATCTTTCTGTTCAAGCGCCATCTAC  0.81 RPM ratio (pull-down/input)
28. GATGATTGTTCTCCCAGCTGATGAATTGGTCGGCTCGAGTAAACAAATTTTCCTAATCTTTCTGTTCAAGCGCCATCTAC  0.809 RPM ratio (pull-down/input)
29. GATGATTGTTCTCCCAGCTGATGAATTAGGGAGATCGAGTAAACAAATTTTCCTAATCTTTCTGTTCAAGCGCCATCTAC  0.804 RPM ratio (pull-down/input)
30. GATGATTGTTCTCCCAGCTGATGAATTCGAAAGGTCGAGTAAACAAATTTTCCTAATCTTTCTGTTCAAGCGCCATCTAC  0.801 RPM ratio (pull-down/input)
31. GATGATTGTTCTCCCAGCTGATGAATTGTAGAGCTCGAGTAAACAAATTTTCCTAATCTTTCTGTTCAAGCGCCATCTAC  0.783 RPM ratio (pull-down/input)
32. GATGATTGTTCTCCCAGCTGATGAATTCAGGACCTCGAGTAAACAAATTTTCCTAATCTTTCTGTTCAAGCGCCATCTAC  0.746 RPM ratio (pull-down/input)
